Data published in PubChem BioAssay AID1569 (National Center for Advancing Translational Sciences (NCATS), 2009).
Inconclusive means that the source gave no clear call. Such entries were picked first, then a sample of the others. A potency beside an inconclusive call is a rough fit, not a confirmed value. Activity calls are given as the source filed them. The call rests on the fitted dose curve; in most records, active means well fitted inhibition curve with a large enough effect; inconclusive means small, poorly fitted or top-dose-only effect, or effect the other way, or another doubt; inactive means no such curve, though single readings can be large or run the other way.

Assay: Confirmation Concentration-Response Assay for lipid storage modulators; further: nearly all actives have a fitted effect of over 80% in size
Settings: Drosophila S3 cells, lipid droplet BODIPY/CellTracker ratio, 18-24 h; series mostly up to 46.1 µM
In short: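 Cells at 5,000/well received compound as a titration plus oleic acid (added as 400 uM solution) and were incubated 18–24 h at 24 °C. BODIPY 493/503 lipid signal and CellTracker Red cell count were read by 488-nm laser-scanning cytometry. Activity was normalised to 20 uM Triacsin C.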
Potency means the concentration at half of the fitted maximal effect; tags describe the fitted curve by direction and shape.

Compound	Potency
O=C(Nc1nnc(S(=O)(=O)N2CCN(c3ccc(F)cc3)CC2)s1)c1ccco1	inconclusive: 8.88 µM [activator, partial curve]
CC(C)OC(=O)c1cc2c(ccn2C)n1CC(=O)N(Cc1ccccc1)c1ccccc1	active: 1.77 µM
CCOc1ccc(OCC)c(NC(=O)C2CCN(S(=O)(=O)c3c(C)noc3C)CC2)c1	active: 0.996 µM
COc1ccc(S(=O)(=O)N2CCOC2CNC(=O)C(=O)NCCc2ccc(OC)c(OC)c2)cc1 (centres undefined)	inconclusive: 3.53 µM [activator, partial curve]
O=C(Nc1cccc(NC(=O)c2cccs2)c1)c1ccc2c(c1)OCO2	inconclusive: 15.8 µM [activator, partial curve, poor fit]
CCOc1ccc(CCNC(=O)CSc2n[nH]c(N)n2)cc1OCC	inconclusive: 19.9 µM [activator, partial curve, poor fit]
COc1ccc(CCNC(=O)Cn2nnc(-c3ccc(N(C)C)cc3)n2)cc1OC	active: 0.705 µM
CCOc1ccc(CCNC(=O)c2c(C)noc2C)cc1OCC	inconclusive: 8.88 µM [activator, partial curve, poor fit]
Cc1cccc(NC(=O)c2sc3nc(-c4ccccc4)cn3c2C)n1	inconclusive: 0.353 µM [activator, full curve]
